From the supplement of paper PMC4166925
± gives the standard deviation of the averaged measurements. The full ranking holds about 33,000 sequences; the median of “E-score (dimensionless, -0.5 to 0.5)” is about -0.049, and the highest 2% start at about 0.37. The list shows a part of the results.

Tested on: T1, PmTbr T-box DNA-binding domain (GST fusion)
T1 sequence: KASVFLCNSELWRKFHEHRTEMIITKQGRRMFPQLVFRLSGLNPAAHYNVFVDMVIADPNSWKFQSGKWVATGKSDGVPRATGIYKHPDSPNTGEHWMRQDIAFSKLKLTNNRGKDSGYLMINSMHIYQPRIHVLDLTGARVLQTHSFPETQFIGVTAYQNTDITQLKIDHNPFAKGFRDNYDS
Test: PBM E-score of 8-mer (E-score (dimensionless, -0.5 to 0.5)); Tbr is Tbrain of the sea star Patiria miniata (Pm) or the sea urchin Strongylocentrotus purpuratus (Sp); higher = stronger binding preference; most listed sequences are background and not binding sites
Settings: the construct has about 5 more residues each side
Summary of the method: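 Universal Agilent oligonucleotide arrays, made double-stranded by primer extension, were incubated with 200 nM GST-fused Tbr T-box DNA-binding domain in PBS (pH 7.5). The protein was expressed in BL21 E. coli at 20 °C and purified by glutathione affinity chromatography. After scanning and quantification, the Universal PBM Analysis Suite assigned an enrichment E-score to each ungapped 8-mer, averaged over duplicate arrays.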

| Sequence | PBM E-score of 8-mer |
| --- | --- |
| ACATCACC | 0.16 ± 0.02 |
| CCATAAAA | -0.197 ± 0.0037 |
| ACAATATG | 0.148 ± 0.0069 |
| CACTTACG | 0.2808 ± 0.0006 |
| AACGCCTG | 0.3181 ± 0.002 |
| CTTGAACC | -0.197 ± 0.054 |
| AATATATT | -0.265 ± 0.13 |
| GACAGCCA | 0.146 ± 0.078 |
| TCACAGAA | 0.11 ± 0.041 |
| GCGGGCTA | -0.365 ± 0.024 |
| GATTACTA | -0.171 ± 0.037 |
| AAACCCCG | -0.028 ± 0.019 |
| ACGAGCAT | -0.0716 ± 0.032 |
| CCGTACTA | -0.0976 ± 0.028 |
| CACTAGCG | 0.1821 ± 0.0004 |
| CCAGGGTA | -0.0692 ± 0.069 |
| CAAGCCTA | -0.112 ± 0.044 |
| CTTTGGAC | -0.0263 ± 0.0036 |
| ATTCTCGG | -0.082 ± 0.071 |
| GTCACCAC | 0.314 ± 0.04 |
| ACCAACGA | 0.0332 ± 0.14 |
| CAAGGTCC | -0.3337 ± 0.001 |
| AGCTTTCG | 0.0201 ± 0.044 |
| GCACAAGA | -0.0781 ± 0.058 |
| TCCCGAGA | -0.111 ± 0.043 |

| Sequence | PBM E-score of 8-mer |
| --- | --- |
| ACGTTACG | -0.0194 ± 0.015 |
| TATCCCAA | -0.225 ± 0.094 |
| ACGACACG | 0.225 ± 0.062 |
| GTAACCCA | -0.215 ± 0.011 |
| AGACTTAG | -0.142 ± 0.014 |
| AGGAACAA | 0.0169 ± 0.026 |
| ACTAAGAA | -0.242 ± 0.021 |
| TATGAGGA | -0.247 ± 0.064 |
| AGTTCGGC | -0.142 ± 0.0066 |
| TACATTGA | -0.105 ± 0.017 |
| CCTAGTTA | -0.121 ± 0.084 |
| CATCGTAG | -0.1 ± 0.022 |
| CCCACTCA | 0.0959 ± 0.087 |
| ACGAGTCC | -0.261 ± 0.054 |
| GGCCATAC | -0.166 ± 0.0026 |
| GGACCAAA | -0.308 ± 0.018 |
| ACGCTTAC | 0.0592 ± 0.021 |
| CATATCAC | 0.32 ± 0.021 |
| ATTGTAGC | -0.0784 ± 0.022 |
| ATCTATCC | -0.142 ± 0.049 |
| AGGTATCA | 0.201 ± 0.046 |
| CCGAACAC | 0.241 ± 0.053 |
| TCGTAAGA | -0.15 ± 0.061 |
| GTGTAACA | 0.252 ± 0.042 |
| AAGAGAAT | -0.269 ± 0.037 |

| Sequence | PBM E-score of 8-mer |
| --- | --- |
| ATTGCTAC | -0.162 ± 0.067 |
| GTAGTCAA | -0.128 ± 0.023 |
| AAGTGTTC | 0.298 ± 0.012 |
| CGGGAACC | -0.0755 ± 0.052 |
| AAGTATGA | -0.0407 ± 0.00071 |
| GGATAGCC | -0.269 ± 0.045 |
| AGTTAAAA | -0.129 ± 0.068 |
| GCCCCTAC | -0.113 ± 0.049 |
| ACAAGGTA | -0.0243 ± 0.03 |
| AATAGCGC | 0.213 ± 0.075 |
| GGTCCACA | -0.0309 ± 0.11 |
| AACACTCG | 0.237 ± 0.037 |
| CTGGCCCC | -0.154 ± 0.047 |
| CTACTGGC | 0.114 ± 0.025 |
| CTCTGAGC | -0.0449 ± 0.047 |
| AAAGGACC | -0.21 ± 0.074 |
| CTCCAGCA | -0.143 ± 0.057 |
| ATGACCAA | -0.183 ± 0.0051 |
| CTCGTCCA | -0.0274 ± 0.078 |
| AAGATCGA | -0.152 ± 0.084 |
| GTCATGAA | -0.131 ± 0.042 |
| AATGTGAT | 0.258 ± 0.039 |
| AGGCTACT | -0.0367 ± 0.044 |
| AGCGCACC | 0.0793 ± 0.0084 |
| GATTCACC | -0.167 ± 0.0053 |

| Sequence | PBM E-score of 8-mer |
| --- | --- |
| GTCGACCA | -0.0969 ± 0.041 |
| ACGGTCGC | 0.204 ± 0.02 |
| AGGGTGTA | 0.317 ± 0.0034 |
| AAATGAGG | -0.179 ± 0.079 |
| ATGTCGAC | 0.0957 ± 0.04 |
| GCCTCGCC | -0.0175 ± 0.055 |
| AAACTCCG | 0.0185 ± 0.0063 |
| GTATATAC | 0.0688 ± 0.066 |
| ACCTTTAA | 0.0452 ± 0.075 |
| TCGACGCA | 0.0353 ± 0.051 |
| CTGTCATC | 0.141 ± 0.036 |
| CATTAAGC | -0.165 ± 0.091 |
| GGCCAAAA | -0.204 ± 0.0029 |
| AGATGCGG | -0.166 ± 0.021 |
| CCAACCTA | -0.078 ± 0.018 |
| CATAACAC | 0.42 ± 0.0089 |
| CACCATAG | 0.248 ± 0.028 |
| CATGCAAA | -0.1553 ± 0.001 |
| CATCTCAG | -0.134 ± 0.067 |
| ACGACACC | 0.421 ± 0.018 |
| CAGCTGCG | 0.179 ± 0.036 |
| AACCACCG | -0.163 ± 0.057 |
| ACGCGGAA | -0.0594 ± 0.086 |
| CTATCGAA | -0.118 ± 0.088 |
| GTACTTCA | -0.0867 ± 0.048 |

| Sequence | PBM E-score of 8-mer |
| --- | --- |
| ACCGTAGA | -0.195 ± 0.048 |
| AAGGGCGG | -0.216 ± 0.011 |
| CGTACACG | -0.0017 ± 0.053 |
| AGCACTCA | 0.0494 ± 0.0015 |
| GACATTTA | -0.146 ± 0.089 |
| CATCATCA | 0.0903 ± 0.061 |
| CGTTGGAC | -0.0164 ± 0.026 |
| AAAGAAGA | -0.151 ± 0.054 |
| ACGGTGGC | 0.0669 ± 0.032 |
| AACGCAGG | -0.144 ± 0.0058 |
| CCGGTATC | -0.105 ± 0.053 |
| ACCCGGTG | 0.175 ± 0.093 |
| CAAATGGC | -0.124 ± 0.039 |
| ACGATGAA | -0.106 ± 0.043 |
| CGGTCTGC | -0.0507 ± 0.024 |
| AATTCCAT | -0.0087 ± 0.00049 |
| CGACGAAA | 0.217 ± 0.023 |
| GATAACCC | 0.0272 ± 0.031 |
| ATTGTCCC | -0.139 ± 0.025 |
| GACTTGGA | -0.167 ± 0.064 |
| AGGGTTAA | -0.0933 ± 0.0027 |
| CTGAGGAA | -0.0661 ± 0.04 |
| CTGCTATC | -0.00783 ± 0.059 |
| GGTCTTGA | -0.102 ± 0.071 |
| AATTCGGG | -0.0985 ± 0.03 |

| Sequence | PBM E-score of 8-mer |
| --- | --- |
| AAAGCCAG | -0.229 ± 0.088 |
| AAAACGCA | -0.0394 ± 0.059 |
| ACATTTGC | 0.112 ± 0.057 |
| ACAGAATG | -0.0678 ± 0.015 |
| GGCCGCTA | 0.0915 ± 0.073 |
| ACAACCCG | 0.146 ± 0.069 |
| AATGGACC | -0.264 ± 0.02 |
| ATAGTATC | -0.163 ± 0.1 |
| AGCAAGTA | 0.114 ± 0.04 |
| ACCTGATG | 0.0342 ± 0.045 |
| GAGAATAC | -0.0102 ± 0.065 |
| CATGACAA | 0.204 ± 0.047 |
| CAGCCAGG | -0.0679 ± 0.026 |
| ACGCCATA | -0.0707 ± 0.035 |
| CCTCTAGC | 0.133 ± 0.0077 |
| CCGCATGA | -0.193 ± 0.018 |
| CCCCGTCC | -0.279 ± 0.047 |
| AAGCCGCG | 0.0627 ± 0.058 |
| AACACGTG | 0.38 ± 0.016 |
| ACTGCCAG | -0.133 ± 0.038 |
| GGTCTTAA | -0.0609 ± 0.12 |
| ATACCCAT | -0.162 ± 0.043 |
| CTTTGTAC | -0.116 ± 0.076 |
| TCTTGAAA | -0.0736 ± 0.019 |
| CTAGGCCA | -0.046 ± 0.0095 |

| Sequence | PBM E-score of 8-mer |
| --- | --- |
| ACACAAGC | 0.0445 ± 0.012 |
| TGACTTAA | -0.12 ± 0.035 |
| AAATTCAA | -0.0843 ± 0.17 |
| ACACTACT | 0.15 ± 0.013 |
| CGAATCCC | -0.0282 ± 0.063 |
| CATCCTAA | -0.167 ± 0.006 |
| AATTTGGG | -0.163 ± 0.0085 |
| AGTGCCTA | -0.0341 ± 0.021 |
| ACTGCGAG | 0.179 ± 0.04 |
| AGAGCGCA | -0.0204 ± 0.075 |
| AACTCGAC | 0.149 ± 0.017 |
| ATCCCAAT | -0.136 ± 0.031 |
| AAGAGGGT | -0.06 ± 0.0015 |
| AGTCAATC | -0.182 ± 0.073 |
| CTAGCATC | 0.0514 ± 0.036 |
| ACAACTGT | 0.222 ± 0.018 |
| CGGGACGC | -0.0718 ± 0.16 |
| AAGAGCTC | -0.232 ± 0.038 |
| ACCCGATC | 0.00349 ± 0.03 |
| AAGTGCAG | 0.111 ± 0.019 |
| CACCTAGG | 0.436 ± 0.01 |
| ATCTCCTA | -0.279 ± 0.035 |
